The list shows a part of the results. At the low end of the ranking the order means little.

Experimental findings from article PMC10668032 are described below.

The target in this test is SIX1 homeodomain (reference allele) (UniProt Q15475). Briefly: universal protein binding microarray. Conditions: Universal all-10-mer PBM (8x60K, AMADID 030236), 300 nM GST-tagged protein, Alexa Fluor 488 anti-GST; buffer, salt, pH and temperature not stated; high values mean tight binding; most listed sequences are background and not binding sites; double strand, one strand shown.
With GTAGCAGA, the binding signal worked out at 0.0862 E-score.
ACTCTCTC: the binding signal was -0.155 E-score.
In the case of AAGCAACG it was -0.131 E-score.
Turning to GCCAGAAA, the binding signal was -0.197 E-score.
With AATCGGCA, the binding signal was -0.0864 E-score.
As for CGTTATTA, the binding signal was -0.117 E-score.
With CGCCACGC, the binding signal is -0.193 E-score.
In the case of CACACAAA it was -0.0848 E-score; in that of CGTATCGC, 0.453 E-score.
On to ATTGATCG, for which the binding signal is 0.121 E-score.
In the case of AAGTTGCA it was -0.216 E-score.
In the case of CTCCTGCA it was -0.0731 E-score; in that of ACAGGGAG, -0.174 E-score.
In the case of GCGTTACC it was -0.0629 E-score; in that of TGCTTGAA, -0.0891 E-score.
Turning to CGTAATTA, the binding signal is -0.157 E-score.
In the case of AGAGGACA it was -0.0731 E-score.
In the case of CAGTTGCG it was -0.0735 E-score.
Regarding TAACGGTA, the binding signal was -0.0381 E-score.
In the case of CGCTGAGA it was 0.0988 E-score; in that of ATTCCAAC, -0.0463 E-score; in that of AAGGGTCG, -0.0732 E-score.
In the case of ACGAAAAG, the binding signal was -0.212 E-score.
In the case of CCGTTAAG it was -0.17 E-score; in that of CACATGAC, -0.13 E-score; in that of AGTACAGC, -0.123 E-score.
In the case of ACGGGGTC it was 0.0842 E-score; in that of CACGACAA, -0.212 E-score; in that of ATCTGTAG, 0.0536 E-score.
In the case of CTGGAGTC it was -0.106 E-score; in that of AGTGACCA, 0.0782 E-score.
In the case of ACTATAAT, the binding signal amounted to 0.0174 E-score.
Take CTTGCACC: the binding signal amounted to 0.0664 E-score.
In the case of CCTGCAGC, the binding signal was -0.0156 E-score.
For the sequence GAAATGTA, the binding signal is -0.0722 E-score.
In the case of GCAGGCGC it was -0.225 E-score.
In the case of ATACTCCA it was 0.336 E-score; in that of GGCATATA, 0.29 E-score; in that of AAAGAACT, -0.256 E-score.
In the case of CCTGTTCC it was -0.0919 E-score; in that of CCTACACC, 0.163 E-score; in that of CTCATGAC, 0.0566 E-score.
With CATTATTC, the binding signal was -0.0194 E-score.
On to CAATCTGA, for which the binding signal turned out to be 0.103 E-score.
In the case of AGTTATTA it was -0.122 E-score; in that of CTAGCATA, -0.077 E-score.
With AGTTTAGG, the binding signal is -0.2 E-score.
In the case of CACACGAA it was -0.0903 E-score.
As to CTTATACC, the binding signal was 0.275 E-score.
CGACAAGA: the binding signal amounted to 0.0328 E-score.
As for GTCCCCGA, the binding signal is -0.146 E-score.
On to GGCAATAA, for which the binding signal is -0.183 E-score.
In the case of TTCCGCAA it was -0.0115 E-score.
Regarding ACCGTACA, the binding signal was 0.0208 E-score.
In the case of GGTTTAAA it was 0.187 E-score; in that of CTCGTTAC, -0.0363 E-score; in that of CCATCAGC, -0.0149 E-score.
In the case of CAGGTCTA it was -0.158 E-score.
In the case of AACGGAGA it was 0.0299 E-score.
For CACCTAAA, the binding signal was -0.17 E-score.
With CCTGGGAG, the binding signal was determined as 0.0788 E-score.
In the case of GGCATTTA it was -0.149 E-score; in that of AGGGATCG, 0.386 E-score; in that of AGAAGAGG, -0.0247 E-score.
In the case of CCGTTCCG it was -0.197 E-score; in that of AGCCGTCC, -0.0611 E-score.
In the case of CAAAGAGA it was -0.166 E-score; in that of CACCATAA, 0.0675 E-score; in that of AGTGCGTA, -0.0896 E-score.
TAGAGAAA: the binding signal is 0.0618 E-score.
Consider CCGGAATC, for which the binding signal amounted to 0.103 E-score.
In the case of AATTTCTC it was -0.182 E-score.
On to CACCTTTA, for which the binding signal was 0.0292 E-score.
Take CTAAGTCC: the binding signal is -0.268 E-score.
In the case of CCCGGGCC it was -0.0791 E-score.
In the case of GATCCAGC it was 0.265 E-score.
On to AATACCCC, for which the binding signal is 0.427 E-score.
In the case of CCTGTCTA it was 0.0036 E-score; in that of AATCGACG, -0.214 E-score; in that of GGAACCCA, 0.0497 E-score.
Take AATCGGTA: the binding signal is -0.0164 E-score.
In the case of CAGACCTG it was -0.105 E-score; in that of GGGCCAAC, -0.174 E-score.
In the case of ACCGTCGA it was -0.0383 E-score.
In the case of AACTCCGA, the binding signal stood at 0.0772 E-score.
In the case of GCAATAGA it was -0.0292 E-score; in that of CCCCCCGC, 0.101 E-score; in that of TTCTCCAA, 0.0129 E-score.
As for GAGTGTAA, the binding signal was -0.187 E-score.
ACCCGCCC: the binding signal came to 0.0643 E-score.
In the case of ACAGCACG, the binding signal came out at 0.0849 E-score.
In the case of ACAATGCA, the binding signal amounted to 0.074 E-score.
Consider AAGAGGCC, for which the binding signal was -0.3 E-score.
In the case of CCTTGTGC, the binding signal is -0.105 E-score.
In the case of CAATGGAA it was -0.035 E-score.
In the case of GCCTCTAC it was -0.00481 E-score; in that of TAAATCGA, -0.238 E-score.
In the case of ACCTTCCA it was -0.197 E-score; in that of CATCCGGA, 0.21 E-score.
CCAGTACA: the binding signal stood at 0.147 E-score.
Consider CTGGTGGC, for which the binding signal was -0.111 E-score.
Consider CGCAGCAC, for which the binding signal is -0.223 E-score.
Regarding AAGCCGCC, the binding signal is -0.184 E-score.
In the case of TACCGATA, the binding signal was found to be 0.375 E-score.
Consider ATGTATTA, for which the binding signal turned out to be 0.241 E-score.
As to AGCCAGCA, the binding signal is -0.184 E-score.
As to GTAGCGGA, the binding signal was determined as 0.0489 E-score.
Take ACGGCAAA: the binding signal was -0.0597 E-score.
In the case of CCGTATAC it was 0.36 E-score.
In the case of CCTTCGAG it was -0.0908 E-score; in that of AATTCGCG, -0.0341 E-score.
In the case of CTATGTAC it was 0.00365 E-score; in that of AGCTTACT, -0.18 E-score.
As to ATGGTGTC, the binding signal was 0.435 E-score.
In the case of AAGTATTA it was 0.254 E-score; in that of GAACTGTA, -0.169 E-score.
In the case of ACGAGACT, the binding signal is -0.0997 E-score.
For AATTCCAC, the binding signal worked out at 0.0293 E-score.
Take CCTCGTGC: the binding signal was -0.117 E-score.
In the case of AATGGAAC it was -0.092 E-score; in that of AACGGTAC, 0.0211 E-score; in that of GAACTGCA, -0.164 E-score.
In the case of CCATTTAA it was -0.0725 E-score.
In the case of ATCTCTAG it was 0.185 E-score; in that of AGTATCAC, 0.464 E-score.
Turning to ACAAGTGC, the binding signal was -0.294 E-score.
On to GGGTGTAC, for which the binding signal was 0.303 E-score.
As to ACTTCACG, the binding signal is -0.246 E-score.
In the case of CGCCTAGA it was 0.112 E-score.
In the case of ATCAAAAG it was 0.0854 E-score.
In the case of AGTTGATG, the binding signal was -0.046 E-score.
In the case of CCCCCCAA it was -0.00617 E-score.
In the case of ACCAGTGA, the binding signal amounted to 0.127 E-score.
For GAGCGACA, the binding signal is -0.161 E-score.
For AGAGGCCG, the binding signal was -0.261 E-score.
In the case of GTCACCAC it was -0.246 E-score; in that of ACGCCTGC, -0.0845 E-score.
In the case of CTAAATTA, the binding signal was -0.135 E-score.
CCGTGATA: the binding signal is 0.348 E-score.
For the sequence ACCAAGTA, the binding signal was 0.057 E-score.
With AGGTTACG, the binding signal is -0.217 E-score.
In the case of AATGTTAA it was -0.168 E-score; in that of AGAGAACC, -0.0686 E-score.
In the case of ATGAAAGA it was -0.158 E-score; in that of CTCGGCTA, 0.026 E-score; in that of CCTGGTAA, -0.177 E-score.
In the case of ATTCGAAA it was -0.204 E-score; in that of CACGTTAG, -0.048 E-score.
On to GCTTTGCA, for which the binding signal was -0.0866 E-score.
Turning to CCTTTAAA, the binding signal was -0.0777 E-score.
In the case of CCCTTGCA it was -0.0987 E-score; in that of ATCGCTAC, 0.115 E-score; in that of CCCCTAGA, 0.137 E-score.
In the case of ACACCAGG it was 0.339 E-score.
In the case of AAATATCC it was 0.271 E-score; in that of CCTGATTA, 0.109 E-score; in that of GCGATTGA, -0.146 E-score.
As for CGCGAACC, the binding signal was -0.151 E-score.
Consider AGCGGACA, for which the binding signal is -0.0991 E-score.
For the sequence ACTGAAGG, the binding signal is -0.142 E-score.
In the case of AACGACCC it was -0.0127 E-score; in that of CAGCAACA, -0.0104 E-score; in that of GACTAGTA, -0.0388 E-score.
Turning to ACCACTCG, the binding signal stood at 0.14 E-score.
In the case of CTTGTCGA it was 0.0441 E-score; in that of GCTCATAA, 0.0557 E-score.
CAGCTCAC: the binding signal is 0.00239 E-score.
In the case of AAGCACTT it was -0.346 E-score; in that of GCCACACA, -0.161 E-score.
In the case of ATCGTATG it was 0.132 E-score; in that of GTAATACA, 0.14 E-score; in that of TAAACTAA, 0.0847 E-score.
